What was measured:
AMB-BT-0013T = test: In vitro cytotoxicity, 3D single spheroid model; format: cell-based, human; settings: AMB-BT-0013T GBM PDCs, FGFR3 expression −, incubated for a week
Description: (§1) 1) 3D single spheroid model was formed by isolating cancer cells derived from glioblastoma patients. Two types of patient-derived cells with FGFR3 overexpression (AMB-BT-0050T, AMB-BT-0112T) and FGFR3 non-expression derived cells (AMB-BT-0013T), sampled from patients suffering from glioblastoma, were incubated overnight to form single spheroids (3D), followed by ADC was treated and incubated for a week, and then spheroid size and volume were quantified.

AMB-BT-0050T = test: In vitro cytotoxicity, 3D single spheroid model; format: cell-based, human; settings: AMB-BT-0050T GBM PDCs, FGFR3 expression +++, incubated for a week
Description: as §1

[1] = tested on: AMB-BT-0050T patient-derived cells; test: Survival in orthotopic glioblastoma PDX model; format: in vivo, BALB/c nude mice; settings: ADC20 20 mg/kg once intravenous, monotherapy; FIG. 7.2
Description: 1) For evaluating the survival rate in an orthotopic mouse model of brain tumor with target expression, AMB-BT-0050T patient-derived cells were sub-cultured and mixed 2.0×10^5 cells with the medium. 7-wk-old female BALB/c nude mice were used for intracranial transplantation. The prepared patient-derived cells were injected into the brains of mice by stereotactic intracranial injection at a depth of 3.2 mm at a position of 1.7 mm left and 0.5 mm above the bregma. Mice were housed with a 12-h light/12-h dark cycle and ad libitum access to food and water. Therapeutics administration is as follows. TMZ (temozolomide) was injected through oral administration every day for 5 times. […] The survival of mice is evaluated through MST (Median Survival Time) and ILS (Increase Life Span); MST, the time point at which the probability of survival equals 50%; ILS (Increase Life Span), ILS (%)=[(median survival time of treated group)/(median survival time of control group)−1]×100.
2) To furtherly evaluate the survival rate in an orthotopic mouse model of brain tumor with target expression, in AMB-BT-0050T PDX model, mice were grouped and treated with (1) vehicle, (2) TMZ (temozolomide), 20 mg/kg; (3) ADC20 20 mg/kg; (4) combination of TMZ and ADC20. […] The survival of mice is evaluated through MST and ILS.

SW780 cells = test: Bladder cancer CDX model; format: in vivo, NOD SCID mice; settings: 5 mg/kg, QW, 2 times, day 20
Description: (§2) 8.3) SW780 cells in exponential growth stage were collected and counted for tumor inoculation. 0.2 mL of matrix gel buffer (PBS:Matrigel=1:1) was used to subcutaneously inject 10×10^6 cells into the right flank of SPF female NOD SCID mice aged 6-8 weeks.
(§3) The tumor diameter was measured with a caliper and the tumor volume was calculated according to the formula V=0.5 a×b^2. When the mean tumor volume was about 100-300 mm^3, the mice were randomized into vehicle group, ADC19 5 mg/kg group and ADC20 5 mg/kg group. The day of first administration is defined as day 0. Mice in the vehicle group were given the solvent of ADC drugs with the same frequency and administration route. The tumor volume of mice in each group was measured twice a week. The experiment was end on day 20, and the tumor growth inhibition rate (TGI) was calculated as follows: TGI (%)=[1−(the mean tumor volume of the treatment group on the end day−the mean tumor volume of the treatment group on the first day)/(the mean tumor volume of the vehicle group on the end day−the mean tumor volume of the vehicle group on the first day)]×100%.

KMS11 cells = test: Multiple myeloma CDX model; format: in vivo, CB17.SCID mice; settings: 5 mg/kg, QW, 2 times, day 32
Description: as §2, with “To evaluate the in vivo anti-tumor efficacy of ADC19 and ADC20 in mice bearing multiple myeloma FGFR3 overexpressed CDX model, KMS11” for “8.3) SW780”, “CB17.SCID” for “NOD SCID”
as §3, with “32,” for “20,”

[2] = tested on: FGFR3-positive RT112 cells and FGFR3-negative U87MG cells; test: Bystander killing effect in RT112/U87MG co-culture; format: cell-based; settings: incubation for a week, FIG. 11
Description: Far-Red labelled FGFR3-positive RT112 cells and CFSE labelled FGFR3-negative U87MG cells were seeded onto 96 well round bottom plate with 1.0×10^4 cells for each cell types. The cells were incubated overnight for stable adhesion to plate, followed by treatment with ADCs or PBS and incubation for a week. After incubation, the cells were centrifuged at 2300 rpm for 2 min, and then supernatant was discarded. The cells were washed once with PBS, detached, and resuspended into flow cytometry staining buffer containing LIVE/DEAD staining dye. Finally, the total amount of FGFR3-positive and FGFR3-negative cells and their viability were detected and analyzed by Flow cytometer (Novocyte, Agilent).

B1: ADC20: ADC formed by ligase site-specific conjugation of Linker-Payload 2 to anti-FGFR3 antibody A9Q (conjugate)
heavy: EVQLLESGGGLVQPGGSLRLSCAASGFTFSSYDMSWVRQAPGKGLEWVSGIYSGDGSIYYADSVKGRFTISRDNSKNTLYLQMNSLRAEDTAVYYCAKDGPMNEESRFDYWGQGTLVTVSS[human IgG1 constant region not written out]
light: QSVLTQPPSASGTPGQRVTISCSGSSSNIGNNYVSWYQQLPGTAPKLLIYADSKRPSGVPDRFSGSKSGTSASLAISGLRSEDEADYYCASWDYSLSGYVFGGGTKLTVLGQPKAAPSVTLFPPSSEELQANKATLVCLISDFYPGAVTVAWKADSSPVKAGVETTTPSKQSNNKYAASSYLSLTPEQWKSHRSYSCQVTHEGSTVEKTVAPTECGALPETGG
AMB-BT-0013T
  IC50: 700 nM
AMB-BT-0050T
  IC50: 0.4 nM
[1]
  progression of brain tumors and survival time: inhibit the progression of brain tumors and prolong the survival time
SW780 cells
  TGI: 76.66%
  Tumor volume: 526 ± 128 mm^3
KMS11 cells
  TGI: 108.31%
  Tumor volume: 11 ± 1 mm^3
[2]
  bystander killing effect: more effective bystander killing effect than ADC 19
